Reference: the supplement of paper PMC11741623
This is one part of the list. Interaction screen of human proteins with wild-type SARS-CoV-2 proteins by split-DHFR complementation in yeast, 1 µg/mL methotrexate. Value = fitness of the pair (three or more lineages) minus that of the viral protein without a human partner, on a scale set by negative (0) and fused positive (1) controls, mean of up to three cultures; higher = more likely to interact. Active = false discovery rate below 0.05 (one-sided t-test) in at least one culture. Nearly all pairs are not hits, and differences among them are mostly noise (correlation between cultures about 0.3); most hits were seen in one culture only. Human sequences are the Swiss-Prot entries looked up by gene name; the clone may be another isoform. NSP2 values were corrected by the authors for a growth advantage. Listed are human proteins with a hit and a random twelfth of the others.

B1: WDR33, Q9C0J8 (protein)
chain: MATEIGSPPRFFHMPRFQHQAPRQLFYKRPDFAQQQAMQQLTFDGKRMRKAVNRKTIDYNPSVIKYLENRIWQRDQRDMRAIQPDAGYYNDLVPPIGMLNNPMNAVTTKFVRTSTNKVKCPVFVVRWTPEGRRLVTGASSGEFTLWNGLTFNFETILQAHDSPVRAMTWSHNDMWMLTADHGGYVKYWQSNMNNVKMFQAHKEAIREASFSPTDNKFATCSDDGTVRIWDFLRCHEERILRGHGADVKCVDWHPTKGLVVSGSKDSQQPIKFWDPKTGQSLATLHAHKNTVMEVKLNLNGNWLLTASRDHLCKLFDIRNLKEELQVFRGHKKEATAVAWHPVHEGLFASGGSDGSLLFWHVGVEKEVGGMEMAHEGMIWSLAWHPLGHILCSGSNDHTSKFWTRNRPGDKMRDRYNLNLLPGMSEDGVEYDDLEPNSLAVIPGMGIPEQLKLAMEQEQMGKDESNEIEMTIPGLDWGMEEVMQKDQKKVPQKKVPYAKPIPAQFQQAWMQNKVPIPAPNEVLNDRKEDIKLEEKKKTQAEIEQEMATLQYTNPQLLEQLKIERLAQKQVEQIQPPPSSGTPLLGPQPFPGQGPMSQIPQGFQQPHPSQQMPMNMAQMGPPGPQGQFRPPGPQGQMGPQGPPLHQGGGGPQGFMGPQGPQGPPQGLPRPQDMHGPQGMQRHPGPHGPLGPQGPPGPQGSSGPQGHMGPQGPPGPQGHIGPQGPPGPQGHLGPQGPPGTQGMQGPPGPRGMQGPPHPHGIQGGPGSQGIQGPVSQGPLMGLNPRGMQGPPGPRENQGPAPQGMIMGHPPQEMRGPHPPGGLLGHGPQEMRGPQEIRGMQGPPPQGSMLGPPQELRGPPGSQSQQGPPQGSLGPPPQGGMQGPPGPQGQQNPARGPHPSQGPIPFQQQKTPLLGDGPRAPFNQEGQSTGPPPLIPGLGQQGAQGRIPPLNPGQGPGPNKGDSRGPPNHHMGPMSERRHEQSGGPEHGPERGPFRGGQDCRGPPDRRGPHPDFPDDFSRPDDFHPDKRFGHRLREFEGRGGPLPQEEKWRRGGPGPPFPPDHREFSEGDGRGAARGPPGAWEGRRPGDERFPRDPEDPRFRGRREESFRRGAPPRHEGRAPPRGRDGFPGPEDFGPEENFDASEEAARGRDLRGRGRGTPRGGRKGLLPTPDEFPRFEGGRKPDSWDGNREPGPGHEHFRDTPRPDHPPHDGHSPASRERSSSLQGMDMASLPPRKRPWHDGPGTSEHREMEAPGGPSEDRGGKGRGGPGPAQRVPKSGRSSSLDGEHHDGYHRDEPFGGPPGSGTPSRGGRSGSNWGRGSNMNSGPPRRGASRGGGRGR
B2: TRIM29, Q14134 (protein)
chain: MEAADASRSNGSSPEARDARSPSGPSGSLENGTKADGKDAKTTNGHGGEAAEGKSLGSALKPGEGRSALFAGNEWRRPIIQFVESGDDKNSNYFSMDSMEGKRSPYAGLQLGAAKKPPVTFAEKGELRKSIFSESRKPTVSIMEPGETRRNSYPRADTGLFSRSKSGSEEVLCDSCIGNKQKAVKSCLVCQASFCELHLKPHLEGAAFRDHQLLEPIRDFEARKCPVHGKTMELFCQTDQTCICYLCMFQEHKNHSTVTVEEAKAEKETELSLQKEQLQLKIIEIEDEAEKWQKEKDRIKSFTTNEKAILEQNFRDLVRDLEKQKEEVRAALEQREQDAVDQVKVIMDALDERAKVLHEDKQTREQLHSISDSVLFLQEFGALMSNYSLPPPLPTYHVLLEGEGLGQSLGNFKDDLLNVCMRHVEKMCKADLSRNFIERNHMENGGDHRYVNNYTNSFGGEWSAPDTMKRYSMYLTPKGGVRTSYQPSSPGRFTKETTQKNFNNLYGTKGNYTSRVWEYSSSIQNSDNDLPVVQGSSSFSLKGYPSLMRSQSPKAQPQTWKSGKQTMLSHYRPFYVNKGNGIGSNEAP
B3: SPACA1, Q9HBV2 (protein)
chain: MSPRGTGCSAGLLMTVGWLLLAGLQSARGTNVTAAVQDAGLAHEGEGEEETENNDSETAENYAPPETEDVSNRNVVKEVEFGMCTVTCGIGVREVILTNGCPGGESKCVVRVEECRGPTDCGWGKPISESLESVRLACIHTSPLNRFKYMWKLLRQDQQSIILVNDSAILEVRKESHPLAFECDTLDNNEIVATIKFTVYTSSELQMRRSSLPATDAALIFVLTIGVIICVFIIFLLIFIIINWAAVKAFWGAKASTPEVQSEQSSVRYKDSTSLDQLPTEMPGEDDALSEWNE
B4: PPAP2B, O14495 (protein)
chain: MQNYKYDKAIVPESKNGGSPALNNNPRRSGSKRVLLICLDLFCLFMAGLPFLIIETSTIKPYHRGFYCNDESIKYPLKTGETINDAVLCAVGIVIAILAIITGEFYRIYYLKKSRSTIQNPYVAALYKQVGCFLFGCAISQSFTDIAKVSIGRLRPHFLSVCNPDFSQINCSEGYIQNYRCRGDDSKVQEARKSFFSGHASFSMYTMLYLVLYLQARFTWRGARLLRPLLQFTLIMMAFYTGLSRVSDHKHHPSDVLAGFAQGALVACCIVFFVSDLFKTKTTLSLPAPAIRKEILSPVDIIDRNNHHNMM

Each binder was assayed against SARS-CoV-2 E (assay: yeast fitness gain over the viral ORF with no human partner (scaled fitness); higher = more likely to interact).
Description: (§1)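 Split mouse DHFR complementation in pooled diploid yeast: human ORFeome clones carry one fragment and viral ORFs the other; barcoded lineages compete in 1 µg/mL methotrexate and fitness is read by barcode sequencing in up to three cultures.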

Binder	yeast fitness gain
B1	inactive: -0.211
B2	inactive: -0.0563
B3	inactive: -0.186
B4	inactive: -0.0442

Each binder was assayed against SARS-CoV-2 M in the same assay as above.
Description: as §1

Binder	yeast fitness gain
B1	inactive: 0.00736
B2	inactive: -0.0885
B3	inactive: 0.0367
B4	inactive: -0.112

The binders below were run against SARS-CoV-2 N in the same assay as above.
Description: as §1

Binder	yeast fitness gain
B1	inactive: 0.0228
B2	inactive: 0.0515
B4	inactive: 0.0163

These binders were tested against SARS-CoV-2 NSP1 in the same assay as above.
Description: as §1

Binder	yeast fitness gain
B1	inactive: 0.00377
B2	inactive: -0.102
B3	inactive: 0.00656
B4	inactive: -0.000347

The binders below were run against SARS-CoV-2 NSP10 in the same assay as above.
Description: as §1

Binder	yeast fitness gain
B1	inactive: 0.0456
B2	inactive: -0.0101
B3	inactive: -0.0224
B4	inactive: -0.0413

Each binder was assayed against SARS-CoV-2 NSP12 in the same assay as above.
Description: as §1

Binder	yeast fitness gain
B1	inactive: 0.0157
B2	inactive: -0.0883
B3	inactive: 0.0747
B4	inactive: -0.0141

The binders below were run against SARS-CoV-2 NSP13 in the same assay as above.
Description: as §1

Binder	yeast fitness gain
B1	inactive: 0.0631
B2	inactive: 0.00923
B3	inactive: 0.0633
B4	inactive: -0.0254

What follows are binders tested against SARS-CoV-2 NSP14 in the same assay as above.
Description: as §1

Binder	yeast fitness gain
B1	inactive: 0.0284
B2	inactive: -0.0746
B3	inactive: 0.0661
B4	inactive: 0.0962

These binders were tested against SARS-CoV-2 NSP15 in the same assay as above.
Description: as §1

Binder	yeast fitness gain
B1	inactive: -0.0786
B2	inactive: -0.0103
B4	inactive: -0.0736

Each binder was assayed against SARS-CoV-2 NSP16 in the same assay as above.
Description: as §1

Binder	yeast fitness gain
B1	inactive: -0.134
B2	inactive: -0.0607
B3	inactive: -0.0159
B4	inactive: 0.0753

These binders were tested against SARS-CoV-2 NSP2 in the same assay as above.
Description: as §1

Binder	yeast fitness gain
B1	inactive: -0.178
B2	inactive: -0.106
B3	inactive: -0.0166
B4	inactive: -0.21

Each binder was assayed against SARS-CoV-2 NSP4 in the same assay as above.
Description: as §1

Binder	yeast fitness gain
B1	inactive: 0.0397
B3	inactive: -0.0345
B4	inactive: 0.06

These binders were tested against SARS-CoV-2 NSP5 in the same assay as above.
Description: as §1

Binder	yeast fitness gain
B1	inactive: -0.0601
B2	inactive: 0.0327
B3	inactive: 0.0338
B4	inactive: -0.0216

The binders below were run against SARS-CoV-2 NSP6 in the same assay as above.
Description: as §1

Binder	yeast fitness gain
B1	inactive: 0.135
B2	inactive: -0.0629
B3	inactive: -0.0148
B4	inactive: 0.00608

These binders were tested against SARS-CoV-2 NSP7 in the same assay as above.
Description: as §1

Binder	yeast fitness gain
B1	inactive: 0.0158
B2	inactive: -0.0725
B3	inactive: 0.0189
B4	inactive: 0.0395

These binders were tested against SARS-CoV-2 NSP8 in the same assay as above.
Description: as §1

Binder	yeast fitness gain
B1	inactive: 0.0204
B2	inactive: -0.0262
B3	inactive: 0.0113
B4	inactive: -0.0527

Each binder was assayed against SARS-CoV-2 NSP9 in the same assay as above.
Description: as §1

Binder	yeast fitness gain
B1	inactive: 0.0511
B2	inactive: -0.0902
B3	inactive: 0.0982
B4	inactive: 0.0431

What follows are binders tested against SARS-CoV-2 ORF10 in the same assay as above.
Description: as §1

Binder	yeast fitness gain
B1	inactive: 0.00745
B2	inactive: 0.0582
B3	inactive: -0.0566
B4	inactive: -0.0161

The binders below were run against SARS-CoV-2 ORF3A in the same assay as above.
Description: as §1

Binder	yeast fitness gain
B1	inactive: 0.00944
B2	inactive: 0.0544
B4	inactive: 0.0542

What follows are binders tested against SARS-CoV-2 ORF3B in the same assay as above.
Description: as §1

Binder	yeast fitness gain
B1	inactive: -0.00633
B2	inactive: 0.00663
B3	inactive: -0.0649
B4	inactive: -0.0378

What follows are binders tested against SARS-CoV-2 ORF6 in the same assay as above.
Description: as §1

Binder	yeast fitness gain
B1	inactive: -0.00812
B2	inactive: 0.0413
B3	inactive: -0.018
B4	inactive: 0.0364

The binders below were run against SARS-CoV-2 ORF7A in the same assay as above.
Description: as §1

Binder	yeast fitness gain
B1	inactive: 0.000619
B2	inactive: -0.024
B3	inactive: -0.0143
B4	inactive: 0.114

These binders were tested against SARS-CoV-2 ORF7B in the same assay as above.
Description: as §1

Binder	yeast fitness gain
B1	inactive: -0.0201
B2	inactive: 0.00963
B3	inactive: 0.0309
B4	inactive: 0.123

The binders below were run against SARS-CoV-2 ORF8 in the same assay as above.
Description: as §1

Binder	yeast fitness gain
B1	inactive: -0.0145
B2	inactive: -0.0214
B3	inactive: 0.0551
B4	inactive: -0.0224

What follows are binders tested against SARS-CoV-2 ORF9B in the same assay as above.
Description: as §1

Binder	yeast fitness gain
B1	inactive: 0.0378
B2	inactive: 0.0306
B3	inactive: 0.0895
B4	inactive: -0.0294

The binders below were run against SARS-CoV-2 ORF9Bwu (the 73-codon ORF) in the same assay as above.
Description: as §1

Binder	yeast fitness gain
B1	inactive: 0.00547
B2	inactive: -0.115
B3	inactive: 0.0743
B4	inactive: 0.00373

These binders were tested against SARS-CoV-2 S in the same assay as above.
Description: as §1

Binder	yeast fitness gain
B1	inactive: 0.106
B2	inactive: -0.113
B3	inactive: 0.0635
B4	inactive: 0.0425
